# Laboratory results taken from PMC4336329 (PLoS ONE, 2015).
# In all, about 310,000 compounds went through this assay and about 2,200 (0.71%) showed an effect of 50% or more. Effects have a minus sign here. This is one part of the list.
# Molecular target: human ether-à-go-go-related gene (hERG) potassium channel (human, UniProt Q12809)
# Test: primary screen, population patch clamp on CHO cells stably expressing hERG
# Chain of human ether-à-go-go-related gene (hERG) potassium channel (Q12809 whole entry, looked up): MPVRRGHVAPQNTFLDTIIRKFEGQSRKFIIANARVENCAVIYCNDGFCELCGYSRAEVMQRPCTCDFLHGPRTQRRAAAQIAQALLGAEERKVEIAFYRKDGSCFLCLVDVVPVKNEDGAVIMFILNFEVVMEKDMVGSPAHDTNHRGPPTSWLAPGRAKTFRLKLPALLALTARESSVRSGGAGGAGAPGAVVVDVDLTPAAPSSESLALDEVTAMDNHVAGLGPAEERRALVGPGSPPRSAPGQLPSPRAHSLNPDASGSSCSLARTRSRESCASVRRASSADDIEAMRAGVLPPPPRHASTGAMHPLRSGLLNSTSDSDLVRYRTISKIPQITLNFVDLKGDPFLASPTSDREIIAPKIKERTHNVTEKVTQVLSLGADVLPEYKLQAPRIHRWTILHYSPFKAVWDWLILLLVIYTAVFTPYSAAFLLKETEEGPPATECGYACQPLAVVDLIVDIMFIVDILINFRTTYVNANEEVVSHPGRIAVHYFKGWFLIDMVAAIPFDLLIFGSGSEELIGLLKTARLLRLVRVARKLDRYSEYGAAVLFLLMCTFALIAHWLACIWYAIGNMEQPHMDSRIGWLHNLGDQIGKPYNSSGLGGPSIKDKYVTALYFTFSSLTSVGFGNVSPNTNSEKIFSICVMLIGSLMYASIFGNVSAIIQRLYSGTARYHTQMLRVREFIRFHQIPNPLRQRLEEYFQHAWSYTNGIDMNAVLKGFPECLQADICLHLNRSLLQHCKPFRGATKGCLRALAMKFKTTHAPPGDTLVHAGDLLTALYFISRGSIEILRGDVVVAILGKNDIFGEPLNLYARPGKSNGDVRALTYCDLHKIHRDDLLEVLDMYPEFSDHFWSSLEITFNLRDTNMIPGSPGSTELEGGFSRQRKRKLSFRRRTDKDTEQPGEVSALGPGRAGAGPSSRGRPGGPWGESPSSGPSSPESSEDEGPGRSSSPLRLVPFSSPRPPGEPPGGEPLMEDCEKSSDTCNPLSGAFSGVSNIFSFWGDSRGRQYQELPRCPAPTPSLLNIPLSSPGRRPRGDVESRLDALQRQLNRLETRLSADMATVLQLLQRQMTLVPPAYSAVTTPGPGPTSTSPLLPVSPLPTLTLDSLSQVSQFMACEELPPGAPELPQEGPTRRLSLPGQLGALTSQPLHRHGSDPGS
row,Compound,"hERG current change (%, negative = inhibition) at 1uM [%]"
1,COc1ccc(C(=O)N2CCCC(c3nc(-c4cc(OC)c(OC)c(OC)c4)no3)C2)cc1 (centres unmarked),9.62
2,Cc1ccc(NC(=O)Nc2ccc3c(c2)CCC3)cc1,-20.5
3,CCCCn1c(-c2ccc(OC(F)F)cc2)nc2c1c(=O)[nH]c(=O)n2CC(C)C,-4.87
4,CCOC(=O)COc1ccc(C(=O)CC)cc1OC,14.1
5,COc1ccc(CCC(=O)Nc2ccc(C)c(S(=O)(=O)N(C)C)c2)cc1OC,2.59
6,O=C(COC(=O)c1cc(=O)[nH]c2ccc(Br)cc12)c1ccccc1,18.8
7,O=S(=O)(c1ccccc1)N1CCC(Oc2ccc(-n3cnnn3)cc2)CC1,-44.9
8,CCn1c(C)c(C(C)=O)c(N2CCN(c3ccc(OC)cc3)CC2)nc1=S,0.185
9,CCc1ccc(NC(=S)NC2CC3CCC(C2)N3Cc2ccco2)cc1 (centres unmarked),-11.7
10,O=C(Nc1ccccc1)Nc1ccncc1,5.54
11,CCc1cc2cccc(C)c2nc1SCC(=O)N1CCN(C(=O)c2ccco2)CC1,-12.3
12,NC(=O)COC(=O)CC1CC2CCC1C2 (centres unmarked),9.03
13,COc1ccc(C(=O)N/N=C/c2cc3ccccc3[nH]c2=S)cc1,3.93
14,CN1CCN(C(=O)COc2ccc(S(=O)(=O)NCc3ccccc3)cc2Cl)CC1,4.71
15,CCC(C)NS(=O)(=O)c1ccc(NS(=O)(=O)c2ccccc2[N+](=O)[O-])cc1 (centres unmarked),11.5
16,C=CCn1c(COc2ccc(F)cc2)nnc1SC(C)C(=O)NCC1CCCO1 (centres unmarked),9.66
17,COc1ccc2cc(-c3cccnc3)ncc2c1,15.5
18,CCCNC(=O)c1onc(CSc2ccccc2)c1C(=O)NCCC,8.4
19,Cc1cccc(NC(=S)N/N=C/c2cccn2Cc2ccc(F)cc2)c1,6.56

row,Compound,"hERG current change (%, negative = inhibition) at 1uM [%]"
1,CCCOc1ccc2oc(=O)c3c(c2c1)CCCN3C(=O)CN1CCc2ccccc2C1,5.33
2,CCCCNC(=S)N(C)/N=C/c1ccc(F)cc1,6.79
3,COc1ccc(OC)c(/C=N/Nc2cc(C)nc(N3CCOCC3)n2)c1,4.83
4,CC12CCC(C(=O)Nc3cccc(NC(=O)C45CCC(C)(C(=O)O4)C5(C)C)n3)(OC1=O)C2(C)C,10.9
5,O=c1c2ccccc2nc(COc2ccccc2)n1/N=C/c1cn[nH]c1-c1ccccc1,6.72
6,Cc1nc(N(C)C)c2sc(=S)n(Cc3ccccc3)c2n1,11.8
7,Cc1ccc(C)n1-c1c(C(=O)NN)cnn1-c1ccccc1,7.54
8,Cc1cccc(-c2c3c(=O)n(C)c(=O)n(C)c3cn2C(C)(C)C)c1,3.64
9,N#Cc1cccc(S(=O)(=O)NCC(=O)NCc2ccc3c(c2)OCO3)c1,9.94
10,CCOc1ccc(NC(=O)C2CCN(S(=O)(=O)c3ccc4c(c3)C(C)(C)C(=O)N4C)CC2)cc1,5.93
11,COc1ccc(NS(=O)(=O)c2ccc(N3CCOCC3)c(NC(=O)c3ccco3)c2)cc1,18
12,O=P(c1ccccc1)(c1ccccc1)C(O)c1ccco1 (centres unmarked),8.94
13,O=C(c1ccc(Cn2cc(Cl)c([N+](=O)[O-])n2)cc1)N1CCN(Cc2ccccc2)CC1,6.22
14,CC(C)CNC(=O)[C@H](Cc1ccccc1)NC(=O)c1cccs1,16.4
15,COC(=O)CCC(=O)c1oc2ccc(Br)cc2c1N,12.8
16,O=C(O)CN1CCN(c2ncc(C(F)(F)F)cc2Cl)CC1,12.6
17,O=C(CC1(O)C(=O)c2ccccc2C1=O)c1ccccc1,14.3
18,CCc1c(C)sc(NC(=O)C2CCCCC2C(=O)O)c1C(N)=O (centres unmarked),9.96
19,CCCCCOc1ccc(C(=O)C(c2ccccc2)N2CCOCC2)cc1.Cl (centres unmarked),11.5

row,Compound,"hERG current change (%, negative = inhibition) at 1uM [%]"
1,COc1cc(/C=C2\CCCc3c2nc2ccccc2c3C(=O)O)cc(Cl)c1O,13.8
2,CN(C)C(=O)c1ccc(NC(=O)c2ccc(-c3ccc(Cl)cc3)o2)cc1,-2.31
3,CCCNC(=O)C(=O)N/N=C/c1cccs1,23.7
4,O=[N+]([O-])c1cccc(S(=O)(=O)Nc2ccc(-c3ccc(N4CCOCC4)nn3)cc2)c1,0.598
5,CCCCOc1cccc(C2/C(=C(\O)c3ccc4c(c3)OCCO4)C(=O)C(=O)N2CCN2CCOCC2)c1 (centres unmarked),14.2
6,CCOC(=O)c1[nH]c2cc3c(cc2c1NC(=O)CN1CCCCC1C)OCO3 (centres unmarked),-7.96
7,COc1ccc(N2CCN(C(CNC(=O)C(=O)NCC(OC)OC)c3ccco3)CC2)cc1 (centres unmarked),11.5
8,Cc1ccc(Cn2c(C3CCCN3c3nc(C)cs3)nc3cc(C(=O)NCCCO)ccc32)cc1 (centres unmarked),4.96
9,Cc1noc(C)c1-c1nnc(-c2ccc(C(F)(F)F)cc2)o1,14.4
10,COc1ccc(S(=O)(=O)Cc2ccc(C(=O)NCc3ccccc3)o2)cc1,8.92
11,COc1ccccc1OCc1nnc(SCC(=O)N2CCCCC2)n1-c1ccccc1,-9.97
12,O=C(COc1ccc2c(c1)OCO2)Nc1cccc(F)c1,19.2
13,CN(CCOc1ccc(Cl)cc1)C(=O)C1CCN(C(=O)c2ccc(F)cc2)CC1,-34.7
14,O=C(c1c(O)c2ccccc2oc1=O)C1CCCCC1,13.2
15,O=C(CCC(=O)OCc1ccc(Cl)cc1)Nc1cccc([N+](=O)[O-])c1,3.12
16,C=C(C)CSc1nnc(-c2ccc(OC)c(OC)c2)n1N,9.03
17,COc1ccc(Cl)cc1-c1nc(SCC(=O)NC(C)C)n[nH]1,5.97
18,COc1ccccc1CN(C)C(=O)c1cnc(C)cn1,18.2
